Residue numbers refer to the chain shown, from its start. In names and notes the source's numbering stands. No constants are given. Whether binding was seen depends on the method and setting. Binding seen in cells or lysates may run through a third protein. Some binding calls cover weakened binding; strength is not graded here. For part of these data: Tags and fused reporters may be left off the sequences shown.

By UniProt entry, the sequences of proteins in these tests, tags left out. Where a name states a change or a piece, a line headed by the entry shows the natural chain unless it says otherwise. Chains listed by the source or under a name are the forms on record and can include a tag or linker. Residues count along the entry.
UniProt O22476, residues 24-1196: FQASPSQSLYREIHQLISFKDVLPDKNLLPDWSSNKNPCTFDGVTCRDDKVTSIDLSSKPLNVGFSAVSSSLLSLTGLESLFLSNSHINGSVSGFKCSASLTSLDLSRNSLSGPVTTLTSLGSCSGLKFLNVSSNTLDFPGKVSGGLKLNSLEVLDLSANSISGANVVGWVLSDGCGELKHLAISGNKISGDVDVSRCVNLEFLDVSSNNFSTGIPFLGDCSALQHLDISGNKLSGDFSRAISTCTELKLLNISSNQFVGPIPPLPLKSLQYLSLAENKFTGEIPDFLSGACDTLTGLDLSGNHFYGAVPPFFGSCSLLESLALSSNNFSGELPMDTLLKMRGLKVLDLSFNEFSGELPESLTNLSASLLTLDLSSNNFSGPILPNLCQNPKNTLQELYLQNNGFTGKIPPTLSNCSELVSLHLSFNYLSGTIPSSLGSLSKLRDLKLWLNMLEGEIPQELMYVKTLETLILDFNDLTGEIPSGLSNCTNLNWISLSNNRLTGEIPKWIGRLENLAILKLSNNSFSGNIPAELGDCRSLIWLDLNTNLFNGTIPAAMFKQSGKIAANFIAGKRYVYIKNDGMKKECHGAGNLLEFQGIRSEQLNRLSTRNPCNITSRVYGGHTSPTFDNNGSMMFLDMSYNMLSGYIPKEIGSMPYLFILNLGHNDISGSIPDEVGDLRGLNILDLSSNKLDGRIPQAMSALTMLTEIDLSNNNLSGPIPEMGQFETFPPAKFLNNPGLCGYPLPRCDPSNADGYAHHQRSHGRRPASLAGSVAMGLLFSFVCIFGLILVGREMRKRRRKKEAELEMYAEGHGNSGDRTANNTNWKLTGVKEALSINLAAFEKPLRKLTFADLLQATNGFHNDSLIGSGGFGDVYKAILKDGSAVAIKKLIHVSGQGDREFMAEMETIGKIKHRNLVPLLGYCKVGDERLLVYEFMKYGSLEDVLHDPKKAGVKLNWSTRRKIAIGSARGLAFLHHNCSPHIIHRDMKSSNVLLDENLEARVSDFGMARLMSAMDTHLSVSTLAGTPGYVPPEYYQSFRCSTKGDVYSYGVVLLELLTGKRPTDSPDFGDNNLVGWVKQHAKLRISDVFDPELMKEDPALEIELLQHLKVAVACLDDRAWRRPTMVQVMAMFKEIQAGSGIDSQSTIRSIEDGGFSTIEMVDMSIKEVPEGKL
EFR-GFP-His (C0LGT6, residues 25-1031): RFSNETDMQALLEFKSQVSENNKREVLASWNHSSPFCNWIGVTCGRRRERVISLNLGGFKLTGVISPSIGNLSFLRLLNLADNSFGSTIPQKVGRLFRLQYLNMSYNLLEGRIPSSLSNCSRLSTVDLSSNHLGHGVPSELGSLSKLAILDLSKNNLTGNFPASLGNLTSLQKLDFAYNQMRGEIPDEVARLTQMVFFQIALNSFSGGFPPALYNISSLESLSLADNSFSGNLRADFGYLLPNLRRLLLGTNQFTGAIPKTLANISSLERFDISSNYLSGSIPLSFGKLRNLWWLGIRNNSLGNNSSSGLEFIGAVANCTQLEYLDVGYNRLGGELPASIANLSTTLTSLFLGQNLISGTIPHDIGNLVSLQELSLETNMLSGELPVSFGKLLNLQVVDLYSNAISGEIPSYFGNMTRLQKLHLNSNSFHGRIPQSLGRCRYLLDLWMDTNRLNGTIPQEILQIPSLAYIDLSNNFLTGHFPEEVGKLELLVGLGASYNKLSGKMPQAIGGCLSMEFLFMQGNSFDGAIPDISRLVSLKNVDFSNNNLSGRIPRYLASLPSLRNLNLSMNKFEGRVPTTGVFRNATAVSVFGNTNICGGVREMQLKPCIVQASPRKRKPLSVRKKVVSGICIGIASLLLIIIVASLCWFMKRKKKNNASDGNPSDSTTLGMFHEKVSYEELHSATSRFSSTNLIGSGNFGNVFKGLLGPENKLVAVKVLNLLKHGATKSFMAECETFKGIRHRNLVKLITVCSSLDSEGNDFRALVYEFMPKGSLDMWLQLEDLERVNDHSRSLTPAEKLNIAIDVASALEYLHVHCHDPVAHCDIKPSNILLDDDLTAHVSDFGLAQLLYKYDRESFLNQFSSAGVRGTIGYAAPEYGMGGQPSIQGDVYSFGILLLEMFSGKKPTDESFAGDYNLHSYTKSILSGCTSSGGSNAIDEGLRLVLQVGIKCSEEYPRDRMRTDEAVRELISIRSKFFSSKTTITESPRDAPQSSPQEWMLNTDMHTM
EFR*-GFP-His (kinase-dead EFR, D849N) (C0LGT6, form named): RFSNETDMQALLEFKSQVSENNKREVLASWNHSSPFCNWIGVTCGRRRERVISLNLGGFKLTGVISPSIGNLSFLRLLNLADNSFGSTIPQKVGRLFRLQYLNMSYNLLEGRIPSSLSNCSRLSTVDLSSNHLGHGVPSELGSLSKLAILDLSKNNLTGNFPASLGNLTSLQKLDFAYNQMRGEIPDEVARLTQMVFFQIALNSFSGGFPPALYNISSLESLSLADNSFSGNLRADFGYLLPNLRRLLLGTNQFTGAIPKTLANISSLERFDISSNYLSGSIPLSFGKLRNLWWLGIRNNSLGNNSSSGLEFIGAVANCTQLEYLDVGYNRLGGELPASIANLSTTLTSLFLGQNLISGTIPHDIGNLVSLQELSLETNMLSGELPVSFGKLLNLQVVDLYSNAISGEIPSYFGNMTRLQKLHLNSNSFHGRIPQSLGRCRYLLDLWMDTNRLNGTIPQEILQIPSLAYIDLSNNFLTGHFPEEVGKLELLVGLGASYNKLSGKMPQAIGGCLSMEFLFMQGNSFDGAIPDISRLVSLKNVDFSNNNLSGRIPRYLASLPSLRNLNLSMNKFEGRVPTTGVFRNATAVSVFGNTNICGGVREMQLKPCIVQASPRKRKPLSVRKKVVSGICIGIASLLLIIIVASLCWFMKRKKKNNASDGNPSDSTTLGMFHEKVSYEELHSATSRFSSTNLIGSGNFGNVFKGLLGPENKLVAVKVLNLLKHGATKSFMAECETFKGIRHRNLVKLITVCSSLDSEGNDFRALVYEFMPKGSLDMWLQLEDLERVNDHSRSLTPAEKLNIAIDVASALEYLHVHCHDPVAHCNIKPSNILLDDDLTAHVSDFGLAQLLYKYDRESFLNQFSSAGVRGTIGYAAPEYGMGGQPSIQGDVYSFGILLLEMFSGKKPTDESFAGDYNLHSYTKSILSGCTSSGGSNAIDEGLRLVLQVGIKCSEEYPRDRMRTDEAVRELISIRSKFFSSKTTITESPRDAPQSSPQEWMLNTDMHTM

Binding data for 6 molecules are collected here from article PMC3085482, “Phosphorylation-Dependent Differential Regulation of Plant Growth, Cell Death, and Innate Immunity by the Regulatory Receptor-Like Kinase BAK1” (PLoS Genetics, 2011).

Experiment [1] deals with T1, BAK1-GFP (BAK1p::BAK1-eGFP) (Arabidopsis thaliana) (UniProt Q94F62).
T1 sequence: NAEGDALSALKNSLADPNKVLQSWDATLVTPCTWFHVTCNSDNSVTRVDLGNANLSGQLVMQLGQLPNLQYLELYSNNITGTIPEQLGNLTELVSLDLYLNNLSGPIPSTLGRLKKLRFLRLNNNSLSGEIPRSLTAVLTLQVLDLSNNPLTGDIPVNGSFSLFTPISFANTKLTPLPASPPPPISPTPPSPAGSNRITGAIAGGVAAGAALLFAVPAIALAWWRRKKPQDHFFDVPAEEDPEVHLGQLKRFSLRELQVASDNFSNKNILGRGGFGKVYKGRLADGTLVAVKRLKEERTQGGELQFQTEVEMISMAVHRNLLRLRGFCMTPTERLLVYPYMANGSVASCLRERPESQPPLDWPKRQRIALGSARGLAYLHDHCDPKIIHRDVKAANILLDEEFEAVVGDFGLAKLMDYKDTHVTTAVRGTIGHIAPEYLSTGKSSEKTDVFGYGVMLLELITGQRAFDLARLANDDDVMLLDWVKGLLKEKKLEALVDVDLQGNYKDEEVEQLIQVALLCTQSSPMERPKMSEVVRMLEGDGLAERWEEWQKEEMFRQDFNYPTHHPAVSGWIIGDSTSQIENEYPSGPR
Description: co-IP; as a5 but leaves not treated with elf18; IP with GFP-Trap beads, blot with anti-HA.

Experiment [2] addresses T2, BAK1-5-GFP (BAK1p::BAK1-5-eGFP) (Arabidopsis thaliana) (UniProt Q94F62).
T2 sequence: T1 sequence with C383Y
Description: co-IP; N. benthamiana leaves transiently co-expressing EFR-HA3 with BAK1-GFP or BAK1-5-GFP, treated with 100 nM elf18 for 5 min; IP with GFP-Trap beads, blot with anti-GFP or anti-HA.

Experiment [3] concerns the target T1, BAK1-GFP (BAK1p::BAK1-eGFP) (Arabidopsis thaliana). The description is as above.
Experiment [4] deals with BRI1 (brassinosteroid receptor, LRR-RK), endogenous (Arabidopsis thaliana (endogenous in Col-0 and bak1-5)) (UniProt O22476). The experiment can be described thus: co-IP; A. thaliana Col-0 or bak1-5 treated or not with 100 nM BL for 1.5 h; IP with anti-BRI1 antibodies and IgG beads, blot with anti-BRI1 or anti-BAK1.
Experiment [5] deals with EFR-GFP-His (Arabidopsis thaliana) (UniProt C0LGT6). Description: co-IP; as a9 but before elicitation (no elf18 or flg22); IP with anti-GFP (GFP-trap) beads, blot with anti-HA.
In experiment [6] the target is EFR*-GFP-His (kinase-dead EFR, D849N) (Arabidopsis thaliana) (UniProt C0LGT6). The experiment can be described thus: co-IP; N. benthamiana leaves transiently co-expressing EFR-GFP-His, EFR*-GFP-His, FLS2-GFP-His or FLS2*-GFP-His with BAK1-HA3 or BAK1*-HA3, after elicitation with 100 nM elf18 or flg22; IP with anti-GFP (GFP-trap) beads, blot with anti-GFP or anti-HA.
Experiment [7] deals with EFR-GFP-His (Arabidopsis thaliana) (UniProt C0LGT6). The description is as above.
Experiment [8] addresses T2, BAK1-5-GFP (BAK1p::BAK1-5-eGFP) (Arabidopsis thaliana). The experiment can be described thus: co-IP; N. benthamiana leaves transiently co-expressing CERK1-HA3 with BAK1-GFP or BAK1-5-GFP, treated or not with 100 mg/mL chitin for 5 min; IP with GFP-Trap beads, blot with anti-GFP or anti-HA.
Experiment [9] deals with T1, BAK1-GFP (BAK1p::BAK1-eGFP) (Arabidopsis thaliana). The experiment is described as above.

Turning to “EFR-HA3 (EFRp::EFR-3xHA) (from UniProt C0LGT6 25-1031) (receptor)”, the binding entry in experiment [1] was “no binding (condition: without elf18)”; in experiment [2], “binds”; in [3], “binds”.

B1: BAK1-5 (BAK1 C408Y), endogenous protein of the bak1-5 mutant (receptor, UniProt Q94F62 26-615)
chain: T1 sequence with C383Y
As to B1, the binding result in experiment [4] is “binds”.

B2: BAK1-HA3 (receptor, UniProt Q94F62 26-615)
chain: T1 sequence
As to B2, the binding entry in [5] is reported as “no binding (condition: without elf18)”; in experiment [6], “binds”; in [7], “binds”.

B3: BAK1*-HA3 (kinase-dead BAK1, D416N) (receptor, UniProt Q94F62 26-615)
chain: T1 sequence with D391N
B3: the binding entry in experiment [6] and in experiment [7] was “binds” throughout.

B4: BAK1 (BRI1-associated kinase 1, regulatory LRR-RLK), endogenous wild type (receptor, UniProt Q94F62 26-615)
chain: T1 sequence
In the case of B4, the binding result in experiment [4] is listed as “binds”.

B5: CERK1-HA3 (CERK1p::CERK1-3xHA) (receptor, UniProt A8R7E6 24-617)
chain: KCRTSCPLALASYYLENGTTLSVINQNLNSSIAPYDQINFDPILRYNSNIKDKDRIQMGSRVLVPFPCECQPGDFLGHNFSYSVRQEDTYERVAISNYANLTTMESLQARNPFPATNIPLSATLNVLVNCSCGDESVSKDFGLFVTYPLRPEDSLSSIARSSGVSADILQRYNPGVNFNSGNGIVYVPGRDPNGAFPPFKSSKQDGVGAGVIAGIVIGVIVALLLILFIVYYAYRKNKSKGDSFSSSIPLSTKADHASSTSLQSGGLGGAGVSPGIAAISVDKSVEFSLEELAKATDNFNLSFKIGQGGFGAVYYAELRGEKAAIKKMDMEASKQFLAELKVLTRVHHVNLVRLIGYCVEGSLFLVYEYVENGNLGQHLHGSGREPLPWTKRVQIALDSARGLEYIHEHTVPVYVHRDIKSANILIDQKFRAKVADFGLTKLTEVGGSATRGAMGTFGYMAPETVYGEVSAKVDVYAFGVVLYELISAKGAVVKMTEAVGEFRGLVGVFEESFKETDKEEALRKIIDPRLGDSYPFDSVYKMAELGKACTQENAQLRPSMRYIVVALSTLFSSTGNWDVGNFQNEDLVSLMSGR
Consider B5, for which the binding entry in [8] and in [9] was “no binding” each time.
